# Assay results as given in patent US20250075002A1 (BEIGENE SWITZERLAND, published 2025).
# B1: soluble MUC1 (Shanghai Linc-Bio Science Co. LTD) (other)
# chain: not shown
# notes: the bought preparation is not described
# Legend:
# [1] = target: HMFG1 (Abcam, cat. #ab215670); assay: competitive FACS: serially diluted soluble MUC1 blocks the binding of 3 µg/ml HMFG1 to human MUC1 expressing cells
# [2] = target: HMFG1 (Abcam, cat. #ab215670); assay: competitive FACS: serially diluted soluble MUC1 blocks the binding of 0.3 µg/ml HMFG1 to human MUC1 expressing cells
# [3] = target: HMFG1 (Abcam, cat. #ab215670); assay: as above; remark: listed apart in the source
# HMFG1 (Abcam, cat. #ab215670), sequence (VH, as listed by the source, chain 1 of 2): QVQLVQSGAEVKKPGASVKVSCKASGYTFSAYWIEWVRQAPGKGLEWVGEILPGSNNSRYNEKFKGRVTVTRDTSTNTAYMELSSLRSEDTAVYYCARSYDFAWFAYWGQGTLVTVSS
# HMFG1 (Abcam, cat. #ab215670), sequence (VL, as listed by the source, chain 2 of 2): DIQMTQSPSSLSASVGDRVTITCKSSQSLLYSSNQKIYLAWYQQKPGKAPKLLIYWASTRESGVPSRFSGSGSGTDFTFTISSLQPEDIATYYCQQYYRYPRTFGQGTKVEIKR
binder,measurement,setting,value
B1,IC50 (read off the curve),[1],~30 U/mL
same,IC50 (read off the curve),[2],~5 U/mL
same,IC50 (read off the curve),[3],~6 U/mL
